Among all 44,000 compounds or so, about 340 (0.77%) were called active. Inconclusive results (about 5%) are left out. Calls come from the whole dose curve; as a rule, active = well fitted inhibition curve with a large enough effect; inconclusive = small, poorly fitted or top-dose-only effect; inactive = flat fitted curve, though single readings scatter. The list shows a part of the results.
Assay: Acumen qHTS Assay for Inhibitors of the mTORC1 Signaling Pathway in MEF (Tsc2-/-, p53-/-) Cells: Sytravon;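 note: plate controls were DMSO for no effect and rapamycin for full effect; nearly all actives have a fitted effect of over 50% in size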
Conditions: phospho-rpS6 immunofluorescence/PI, 24 h; series mostly up to 38.3 µM; activity change, negative = inhibition: at the top concentration
Outline: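 Plate MEFs (Tsc2-/-, p53-/-, empty vector) in DMEM/10% FBS; after 24 h add compound, incubate 24 h at 37 degree Celsius; fix in PFA/TX-100, block, stain phospho-rpS6 and 10 uM PI; scan at 488 nm; report % positive cells.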

Activity change, negative = inhibition, inactive:
CCOc1ccccc1NC(=O)C1CCC(CNS(=O)(=O)c2ccc3c(c2)CCCC(=O)N3)CC1 (stereo unspecified) 0.724%
Cc1ccc(C)c(NC(=O)CSc2nc(-c3ccccc3)c(C#N)c(=O)[nH]2)c1 1.42%
CCc1cccc(C)c1Nc1c(-c2ccc(SC)cc2)nc2sccn12 1.29%
Cc1ccc(CNc2nc3ccc(Cl)cc3n3cnnc23)cc1 -7.36%
COC(=O)c1ccccc1NC(=O)C1=CC(c2ccc3c(c2)OCO3)=NS(=O)(=O)N1C -3.53%
COc1ccc(S(=O)(=O)c2c(Nc3c(C)cccc3C)sc(C(=O)c3ccc(F)cc3)c2N)cc1 -21%
CCOc1ccc(CCNC(=O)c2cccc(Nc3nc4ccccc4nc3-n3nc(C)cc3C)c2)cc1OCC 0.595%
O=C(CC1N=C2c3ccccc3N=C(SCc3ccc(F)cc3)N2C1=O)NC1CCCCC1 (stereo unspecified) -0.382%
Fc1ccc(-c2noc3ncnc(Nc4ccc(F)cc4F)c23)cc1 -3.43%
Cc1cccc(NC(=O)Cn2c(=O)n(Cc3ccccc3)c(=O)c3sc4ccccc4c32)c1 -5.26%
CCOc1ccc(N(C(=O)c2ccc(Cl)cc2)S(=O)(=O)c2ccc3c(c2)n(C)c(=O)n3C)cc1 3.05%
O=C(CSc1ccc(-c2cccs2)nn1)Nc1ccccc1 1.24%
Cc1ccc(CN(Cc2ccco2)C(=O)c2ccc(Cl)cc2Cl)cc1 -5.14%
COc1ccc(CCNC(=O)Cn2nnc(-c3ccc(Cl)cc3)n2)cc1OC -5.33%
Cc1cccc(-c2nc(CCNC(=O)COc3ccccc3)cs2)c1 -2.81%
COc1ccc(-c2cc(-c3ccccc3)nc(SCC(=O)Nc3ccccc3C)c2C#N)cc1 1.13%
COc1cccc(CNc2nc3ccccc3c3nc(-c4cccc(C)c4)nn23)c1 5.34%
CC(=O)c1cccc(NC(=O)Nc2c(C)n(C)n(-c3ccccc3)c2=O)c1 3.43%
CCOCCCn1c(SCC(=O)Nc2cc(C)ccc2C)nc2c(oc3ccccc32)c1=O 0.357%
COC(=O)c1ccc(NC(=O)CN2CCCN(Cc3ccc(Cl)cc3)S2(=O)=O)cc1 12%
CCN1CCc2c(sc(NC(=O)c3ccc(S(=O)(=O)N(CCOC)CCOC)cc3)c2C(N)=O)C1 9.69%
Cc1ccc(-c2nc3cc(NC(=O)c4cc5ccccc5o4)ccc3o2)cc1Cl 4.15%
CC(NC(=O)CN1C(=O)COc2ccc(S(=O)(=O)N3CCCCCC3)cc21)c1ccccc1 (stereo unspecified) -3.85%
Cc1ccc(Sc2c(C(=O)NCc3cccc(F)c3)[nH]c3ccccc23)cc1 3.08%
CC(C)Oc1ccc(CN2CCc3nc(Nc4ccc5c(c4)OCCO5)ncc3C2)cc1 0%
COc1ccc(OC)c(NC(=O)CSC2=Nc3ccccc3C3=NC(CCC(=O)NCc4ccccc4)C(=O)N23)c1 (stereo unspecified) -0.634%

Reference: PubChem BioAssay AID493208 (National Center for Advancing Translational Sciences (NCATS), 2011)
